From PubChem BioAssay AID504832 (National Center for Advancing Translational Sciences (NCATS), 2011)
About 18,000 (5.8%) of roughly 310,000 compounds were called active. The shares of active, inactive and inconclusive entries below differ from those in the screen. Calls come from the whole dose curve; as a rule, active = well fitted inhibition curve with a large enough effect; inconclusive = small, poorly fitted or top-dose-only effect, or another doubt; inactive = no such curve, though single readings can be large or run the other way. Potencies of inconclusive entries are left out as doubtful fits.

experiment: Primary qHTS for delayed death inhibitors of the malarial parasite plastid, 48 hour incubation; details: P. falciparum luciferase growth in erythrocytes; series mostly up to 28.7 µM
In short: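 Growth was read as firefly luciferase luminescence after a 48 h, 37 C, 5% CO2 exposure of compounds to reporter-bearing P. falciparum cultures (0.1% parasitemia, 2% hematocrit final) in Albumax-supplemented RPMI 1640.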
Potency is the fitted concentration of half-maximal effect; tags give direction and shape of the fitted curve.

**Q.** Which Potency does the source give for COc1cccc(C(=O)N(c2ccc(OC)cc2OC)C2C=CS(=O)(=O)C2)c1 (stereo unspecified) here?
**A.** Its Potency is inconclusive [inhibitor, partial curve].

**Q.** Which Potency does the source give for CCCN1CCC(NC(=S)Nc2ccc([N+](=O)[O-])cc2)CC1 here?
**A.** Its Potency is active: 3.7 µM.

**Q.** With CC(=O)N1N=C(c2ccc(Br)cc2)OC12CCCC2 as the molecule, how does the Potency read?
**A.** The Potency was inconclusive [inhibitor, partial curve, poor fit].

**Q.** With CC(NC(=O)CCNC(=O)c1ccccc1Cl)C1CC2CCC1C2 (stereo unspecified) as the molecule, how does the Potency read?
**A.** The Potency was “inactive”.

**Q.** With Cc1oc(-c2cccs2)nc1CN1CCC(c2ccccc2)CC1 as the molecule, how does the Potency read?
**A.** Its Potency is inconclusive [inhibitor, partial curve, poor fit].

**Q.** With O=C(CCn1c(=O)oc2ccc(Cl)cc21)N1CCN(Cc2ccccc2)CC1 as the molecule, how does the Potency read?
**A.** Its Potency is “inactive”.

**Q.** With CCN(CC)CCOc1ccc(Br)cc1 as the molecule, how does the Potency read?
**A.** The Potency was “inactive”.

**Q.** With CCOc1ccc(NC(=O)CSC2=C(C#N)C(c3ccc4c(c3)OCO4)CC(=O)N2)cc1 (stereo unspecified) as the molecule, how does the Potency read?
**A.** The Potency was inconclusive [inhibitor, partial curve, poor fit].

**Q.** For Clc1ccc(-c2csc3ncnc(N4CCc5ccccc5C4)c23)cc1, which Potency is on record?
**A.** The Potency was inconclusive [inhibitor, single point].

**Q.** With COc1cccc(N2CCN(c3ncnc4c3[nH]c3ccccc34)CC2C)c1 (stereo unspecified) as the molecule, how does the Potency read?
**A.** The Potency was active: 8.28 µM.

**Q.** Which Potency does the source give for S=C(Nc1ccc(Cl)c(Cl)c1)NC1CCN(Cc2ccccc2)CC1 here?
**A.** Its Potency is active: 4.15 µM.

**Q.** For CCOc1ccc(NC(=O)N[C@@H](Cc2ccccc2)C(=O)O)cc1, which Potency is on record?
**A.** Its Potency is “inactive”.

**Q.** For COc1ccccc1OCC(=O)N1CCN(S(=O)(=O)c2ccc(Cl)cc2)CC1, which Potency is on record?
**A.** The Potency was inconclusive [inhibitor, single point].

**Q.** Which Potency does the source give for CCOc1ccc(Cl)cc1CNCCCSc1nc(C)cc(C)n1 here?
**A.** Its Potency is inconclusive [inhibitor, partial curve, poor fit].

**Q.** For CCOC(=O)c1c(C)oc2c1c(C=NCC1CCCO1)c(O)c1ccccc12 (stereo unspecified), which Potency is on record?
**A.** Its Potency is inconclusive [inhibitor, single point].

**Q.** Which Potency does the source give for Cc1cccc(N/N=C/c2ccc(O)c(O)c2O)c1 here?
**A.** The Potency was inconclusive [inhibitor, single point].

**Q.** With CN(C)CCC=C1c2ccccc2CCc2ccccc21 as the molecule, how does the Potency read?
**A.** Its Potency is active: 14.7 µM.

**Q.** For CC(=O)c1ccc2c(c1)C1C(Cl)C(Sc3ccccc3[N+](=O)[O-])CC1C(c1ccccc1[N+](=O)[O-])N2 (stereo unspecified), which Potency is on record?
**A.** The Potency was active: 2.33 µM.

**Q.** For CCN(CC)c1ccc(/C=N/NC(=O)c2c[nH]c3ccccc23)cc1, which Potency is on record?
**A.** Its Potency is inconclusive [inhibitor, single point].

**Q.** For C=CCn1c(SCC(=O)c2ccc(O)c(O)c2)nnc1-c1cccc(Cl)c1, which Potency is on record?
**A.** The Potency was inconclusive [inhibitor, single point].

**Q.** For COc1ccccc1N1C(=O)C2C(C(=O)c3ccccc3)=NN(c3ccccc3OC)C2C1=O (stereo unspecified), which Potency is on record?
**A.** The Potency was “inactive”.

**Q.** With COc1ccc(CC(=O)NCC2CCCN(Cc3ccc(OC(F)(F)F)cc3)C2)cc1 (stereo unspecified) as the molecule, how does the Potency read?
**A.** The Potency was active: 9.28 µM.

**Q.** With COCCNC(=O)CSc1nc2cc(OC)c(OC)cc2c(=O)n1Cc1ccco1 as the molecule, how does the Potency read?
**A.** The Potency was “inactive”.

**Q.** For NNC(=O)c1cc2c(s1)-c1cc(Cl)ccc1SC2, which Potency is on record?
**A.** Its Potency is active: 9.28 µM.

**Q.** With Cc1ccc(NC(=O)C2CCN(S(=O)(=O)c3ccc4c(c3)OCCO4)CC2)c(O)c1 as the molecule, how does the Potency read?
**A.** The Potency was inconclusive [inhibitor, single point].

**Q.** For COc1ccc(NC(=O)CC2(CC(=O)N3CCOCC3)CCCC2)cc1Cl, which Potency is on record?
**A.** The Potency was inconclusive [inhibitor, partial curve].

**Q.** Which Potency does the source give for OCCNCCCCSc1ccc(Cl)cc1 here?
**A.** The Potency was inconclusive [inhibitor, single point].

**Q.** For COc1ccc(O)c(/C=N/N=C/c2cccc([N+](=O)[O-])c2)c1, which Potency is on record?
**A.** The Potency was “inactive”.

**Q.** With COc1cc(CC(=O)Nc2sccc2C(N)=O)cc(OC)c1OC as the molecule, how does the Potency read?
**A.** Its Potency is inconclusive [inhibitor, partial curve].

**Q.** For CCN(CC)S(=O)(=O)c1ccc2oc(Nc3ccc(OC)cc3)nc2c1, which Potency is on record?
**A.** The Potency was inconclusive [inhibitor, partial curve].

**Q.** Which Potency does the source give for CCn1c(SCC(=O)N2CCN(c3ccccc3)CC2)nnc1-c1c[nH]c2ccccc12 here?
**A.** Its Potency is inconclusive [inhibitor, partial curve, poor fit].

**Q.** For COc1ccccc1CN1C(=O)C(=O)N(Cc2cccc(C)c2)C1=O, which Potency is on record?
**A.** Its Potency is inconclusive [inhibitor, full curve, poor fit].

**Q.** With CN(C)S(=O)(=O)Oc1cccc(C(=O)Nc2cccc(Cl)c2)c1 as the molecule, how does the Potency read?
**A.** Its Potency is “inactive”.

**Q.** With CCCn1cc(SCC(=O)NCc2ccco2)c2ccccc21 as the molecule, how does the Potency read?
**A.** The Potency was active: 2.08 µM.

**Q.** Which Potency does the source give for Cc1cc(C)nc(/N=C(\N)Nc2ccc(OCCC(C)C)cc2)n1 here?
**A.** The Potency was active: 10.4 µM.

**Q.** With O=C1NCC(c2ccccc2)C1C(=O)N/N=C/c1ccc(Cl)s1 (stereo unspecified) as the molecule, how does the Potency read?
**A.** Its Potency is “inactive”.

**Q.** With O=C(CN1CCCc2ccccc21)N/N=C/c1ccc(F)cc1F as the molecule, how does the Potency read?
**A.** Its Potency is inconclusive [inhibitor, single point].

**Q.** For CCOc1c(C)cnc2c1c(=O)n(CC(=O)NCC1CCCO1)c(=O)n2C (stereo unspecified), which Potency is on record?
**A.** The Potency was “inactive”.

**Q.** Which Potency does the source give for Cc1cc(CSc2ccccc2)ccc1NC(=O)c1ccc(CN2CCOCC2)cc1 here?
**A.** The Potency was “inactive”.

**Q.** For COc1cccc(/C=N/NC(=O)C(C)n2nc(C)c([N+](=O)[O-])c2C)c1O (stereo unspecified), which Potency is on record?
**A.** Its Potency is inconclusive [inhibitor, single point].

**Q.** Which Potency does the source give for Nc1c(C(=O)NCc2ccc(Cl)cc2)sc2nc3c(c(C(F)(F)F)c12)CCC3 here?
**A.** The Potency was inconclusive [inhibitor, single point].

**Q.** For Cc1ccc(NC(=O)CSCC(=O)N=c2sccn2C)cc1, which Potency is on record?
**A.** The Potency was “inactive”.

**Q.** For Cc1ccc2c(C)nc(Nc3nc(CSc4nc5ccccc5[nH]4)cc(=O)[nH]3)nc2c1, which Potency is on record?
**A.** Its Potency is active: 10.4 µM.

**Q.** Which Potency does the source give for Cc1cc2cc(CNC(=O)c3ccc(S(=O)(=O)N4CCOCC4)cc3)ccc2n1C here?
**A.** The Potency was active: 13.1 µM.

**Q.** For Nc1nonc1-n1nnc(C(=O)N/N=C/c2cccs2)c1-c1ccc2c(c1)OCO2, which Potency is on record?
**A.** Its Potency is active: 0.928 µM.

**Q.** With Cc1cccc(NC(=O)c2cc(S(=O)(=O)NCc3ccco3)ccc2F)c1C as the molecule, how does the Potency read?
**A.** Its Potency is “inactive”.

**Q.** For CC(OC(=O)c1ccccc1C(=O)N(C)c1ccccc1)C(=O)Nc1ccccc1[N+](=O)[O-] (stereo unspecified), which Potency is on record?
**A.** Its Potency is inconclusive [inhibitor, partial curve, poor fit].

**Q.** Which Potency does the source give for Cc1ccccc1CS(=O)(=O)CC1(O)CCN(C(=O)c2cccc(C(F)(F)F)c2)CC1 here?
**A.** Its Potency is inconclusive [inhibitor, partial curve, poor fit].

**Q.** With O=C1CC2OCC=C3CN4CCC56c7cc([N+](=O)[O-])ccc7N1C5C2C3CC46 (stereo unspecified) as the molecule, how does the Potency read?
**A.** Its Potency is inconclusive [inhibitor, single point].

**Q.** Which Potency does the source give for C[C@H](C(=O)CC(=O)OC(C)(C)C)[C@H](O)c1ccc(C(F)(F)F)cc1 here?
**A.** Its Potency is “inactive”.

**Q.** For COc1ccc(NC(C)=O)cc1CNC(=O)COc1c(C)c(C)cc(C)c1C, which Potency is on record?
**A.** The Potency was inconclusive [inhibitor, partial curve, poor fit].

**Q.** With COc1cc(-c2c(-c3ccsc3)sc3ccccc23)cc(OC)c1OC as the molecule, how does the Potency read?
**A.** The Potency was inconclusive [inhibitor, single point].

**Q.** With Cc1c(C)c2ccc(OCC(=O)NC3CCN(Cc4ccccc4)CC3)c(C)c2oc1=O as the molecule, how does the Potency read?
**A.** Its Potency is inconclusive [inhibitor, single point].

**Q.** For O=C(Nc1ccc(NC(=O)C2CCCCC2)nc1)c1cccc(F)c1, which Potency is on record?
**A.** The Potency was inconclusive [inhibitor, single point].

**Q.** With O=C(NC(=S)NC1CCCc2ccccc21)c1ccco1 (stereo unspecified) as the molecule, how does the Potency read?
**A.** The Potency was inconclusive [inhibitor, single point].

**Q.** With CCOc1ccccc1NC(=O)c1cc(C(=O)c2cc(Br)ccc2O)coc1=N as the molecule, how does the Potency read?
**A.** The Potency was inconclusive [inhibitor, single point].

**Q.** With CCOC(=O)c1c(/N=C/c2cc([N+](=O)[O-])ccc2O)sc(C)c1C as the molecule, how does the Potency read?
**A.** Its Potency is inconclusive [inhibitor, single point].

**Q.** Which Potency does the source give for CCCNC(=O)NC(=O)CSc1nc2ccccc2n1CC(C)C here?
**A.** Its Potency is inconclusive [inhibitor, partial curve, poor fit].

**Q.** With CC(=O)Nc1ccc(NC(=O)CSc2nccn2Cc2ccco2)cc1 as the molecule, how does the Potency read?
**A.** Its Potency is “inactive”.

**Q.** Which Potency does the source give for Cc1ccc2c(c1)C1CN(C)CCC1N2C(=O)/C=C/c1ccc2c(c1)OCO2 (stereo unspecified) here?
**A.** Its Potency is inconclusive [inhibitor, single point].

**Q.** Which Potency does the source give for CCN(CC)C(=O)CSc1nc2cc3c(cc2c(=O)n1Cc1ccc2c(c1)OCO2)OCO3 here?
**A.** The Potency was inconclusive [inhibitor, partial curve].

**Q.** For COc1ccc(/C=C/C(=O)Oc2cccc(/C=N/NC(=O)Cc3ccc(Br)cc3)c2)cc1, which Potency is on record?
**A.** The Potency was inconclusive [inhibitor, full curve, poor fit].

**Q.** For CC(=O)NC1=NN(C(C)=O)C(c2ccc(C)cc2)S1 (stereo unspecified), which Potency is on record?
**A.** Its Potency is “inactive”.

**Q.** With Cc1cccc(CC(=O)NCCN2CCOCC2)c1 as the molecule, how does the Potency read?
**A.** Its Potency is “inactive”.

**Q.** For CCCCn1c(N)c(N(CC)C(=O)CSCC(=O)Nc2ccc(OC)cc2)c(=O)[nH]c1=O, which Potency is on record?
**A.** The Potency was inconclusive [inhibitor, single point].

**Q.** Which Potency does the source give for Cc1ccc(C(=O)COC(=O)CNS(=O)(=O)c2ccccc2)cc1[N+](=O)[O-] here?
**A.** The Potency was inconclusive [inhibitor, single point].

**Q.** With COc1ccc(NS(=O)(=O)c2cn(C)cn2)cc1OC as the molecule, how does the Potency read?
**A.** Its Potency is “inactive”.

**Q.** For COc1ccc(-n2c(O)c(C=NCCN(C)C)c(=O)[nH]c2=O)cc1, which Potency is on record?
**A.** The Potency was “inactive”.

**Q.** With Cc1csc(NC(=O)CCc2c(C)nc3cc(-c4ccc(Cl)cc4)nn3c2C)n1 as the molecule, how does the Potency read?
**A.** The Potency was inconclusive [inhibitor, single point].

**Q.** For CCc1ccc(NC(=O)CSc2ccc(-c3ccccn3)nn2)cc1, which Potency is on record?
**A.** Its Potency is “inactive”.

**Q.** With CCOc1ccc(NC(=O)CN2CCN(CC(=O)c3ccc(OCC)cc3)CC2)cc1 as the molecule, how does the Potency read?
**A.** Its Potency is inconclusive [inhibitor, single point].
